Measurements reported in paper PMC7819943, “Rice protein-binding microarrays: a tool to detect cis-acting elements near promoter regions in rice”.
Some of the results follow.

Biological target: T1, OsWOX13 (Oryza sativa, UniProt Q5QMM3 1-267)
T1 sequence: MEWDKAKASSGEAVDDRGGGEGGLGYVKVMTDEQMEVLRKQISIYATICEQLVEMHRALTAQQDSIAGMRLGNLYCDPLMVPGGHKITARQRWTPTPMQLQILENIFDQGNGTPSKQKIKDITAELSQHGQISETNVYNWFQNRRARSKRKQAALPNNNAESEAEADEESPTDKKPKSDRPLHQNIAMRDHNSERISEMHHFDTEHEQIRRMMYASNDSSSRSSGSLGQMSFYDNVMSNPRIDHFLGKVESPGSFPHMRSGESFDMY
Experiment: protein-binding microarray (RPBM); PBS, 2% BSA, 51.3 ng/ul salmon testes DNA, 50 uM zinc acetate, 200 nM TF, 25 C, 1 h; high values mean tight binding
Conditions: protein: recombinant; tags: N-terminal polyhistidine and DsRed monomer fusion (pET32a); label: CyDye5-dUTP incorporated in the synthesized complementary strand; 3' TTTTT single-stranded linker to array surface; dsDNA, one strand shown
In short: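 An Axon 4000B scanner gave the binding signal as per-feature fluorescence intensity in arbitrary units. This followed washing of a custom Agilent array that had been incubated for 1 h at 25 °C with 200 nM protein in PBS, 2% BSA, salmon testes DNA and 50 µM zinc acetate. The proteins were transcription factors fused at the N-terminus to polyhistidine and DsRed, expressed in E. coli BL21-CodonPlus and purified on Ni–NTA.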

| Sequence | binding signal |
| --- | --- |
| GTCAATACATGATTGAGTTTGAATTAATAACTTTTAAATTCGGAGTCACCTAGTGCAG | 21300 fluorescence intensity (a.u.) |
| ATAATTATACATTTGCTGTATTTGACATATTTTAAGGGGACGGAGTCACCTAGTGCAG | 14100 fluorescence intensity (a.u.) |
| CAAGTTAATTTGTATGGCATTTTGGATGACATGCAAAAGTCGGAGTCACCTAGTGCAG | 23100 fluorescence intensity (a.u.) |
| GTGATGGATGAAACCGCGTGGTGACGGAATTGGACAGCGCCGGAGTCACCTAGTGCAG | 3710 fluorescence intensity (a.u.) |
| AAGTTATTTGACTTTATTAATTAGTCAAGATTCTTTAGGTCGGAGTCACCTAGTGCAG | 9300 fluorescence intensity (a.u.) |
| AACCTTGTAGTAATTAGTTGTGATTTCTTTGAAGTGAAGACGGAGTCACCTAGTGCAG | 10300 fluorescence intensity (a.u.) |
| TAAACTAGACTGAATTTAATAACAAATTTAAACGTGTACTCGGAGTCACCTAGTGCAG | 10700 fluorescence intensity (a.u.) |
| ATTCGATTTTCACATTAATTGGTTGCCAAATTTATTAATTCGGAGTCACCTAGTGCAG | 16800 fluorescence intensity (a.u.) |
| TTCATTAAATTTAACGTTGACTATATTTTAATACAATATTCGGAGTCACCTAGTGCAG | 9980 fluorescence intensity (a.u.) |
| AGCTTACGTAATTACGTTTCGGTTTAAAGTTTACGTAAAGCGGAGTCACCTAGTGCAG | 14700 fluorescence intensity (a.u.) |
| TCAACGAAACTGACGGCAATCACGTTGGGCTCGACATCAACGGAGTCACCTAGTGCAG | 7620 fluorescence intensity (a.u.) |
| TGTCCGTAATTACTAATTAGGTGATGTGCTCAGTGAGTGCCGGAGTCACCTAGTGCAG | 43700 fluorescence intensity (a.u.) |
| TTGATTGCACAACAAGGGTGTCGCCGGCGGCATCTCATCACGGAGTCACCTAGTGCAG | 4000 fluorescence intensity (a.u.) |
| TCCCATCTAAAATCATATATAATTATATATAATGTAATCCCGGAGTCACCTAGTGCAG | 10800 fluorescence intensity (a.u.) |
| GAGTAATAGATTTTACCACATTGATAGTATTGACCAACTACGGAGTCACCTAGTGCAG | 8420 fluorescence intensity (a.u.) |
| AATAATTAGTTTTAAACATCATATCATAAGTCCACCACAACGGAGTCACCTAGTGCAG | 21200 fluorescence intensity (a.u.) |
| GTGATCATTAGTGAGTTTGATTAGTTGATTTTGTTGGGGTCGGAGTCACCTAGTGCAG | 16100 fluorescence intensity (a.u.) |
| AGGTTAATTTGGAGCGTCACGGGCTAGTTCCGATCGGTACCGGAGTCACCTAGTGCAG | 21100 fluorescence intensity (a.u.) |
| AGAGATTGAGCAAAATTCAGGGGTACAGAAGGGATTAGGTCGGAGTCACCTAGTGCAG | 8990 fluorescence intensity (a.u.) |
| TATAGACAAAATTATTATATTTTGGAACCAAAGGGAGTAGCGGAGTCACCTAGTGCAG | 4510 fluorescence intensity (a.u.) |
| AATCAAAATTATTATTTCTTGTGTTGTCAACTCGTCACCCCGGAGTCACCTAGTGCAG | 3700 fluorescence intensity (a.u.) |
| AACTAATTTCATAACTTACTTGGAAACCGCGAGACAAATGCGGAGTCACCTAGTGCAG | 5900 fluorescence intensity (a.u.) |
| CTAAATTTGTAAACATTGTCTTGATATTTCTTTGTTTCCTCGGAGTCACCTAGTGCAG | 13700 fluorescence intensity (a.u.) |
| TGGCTCAAATCTAATTGCAATTAACAATAATCATTTATAGCGGAGTCACCTAGTGCAG | 27400 fluorescence intensity (a.u.) |
| CATTAAATTAAGGGGTAATATGCATAATAGGTTGCCTCTACGGAGTCACCTAGTGCAG | 14600 fluorescence intensity (a.u.) |
| TCTTCTGTAATTTCTGTCAATACTCCTTCCATGATTTGCTCGGAGTCACCTAGTGCAG | 9320 fluorescence intensity (a.u.) |
| AGCCCGTAAATTACTCATACGTAATATTGTCAACCTAGGCCGGAGTCACCTAGTGCAG | 6680 fluorescence intensity (a.u.) |

| Sequence | binding signal |
| --- | --- |
| TATATATATATATATATATATATATATATATATGGGGTAACGGAGTCACCTAGTGCAG | 29700 fluorescence intensity (a.u.) |
| GTTTTAAATTATAGTGGATCGAACAATTGTCAACACCTGTCGGAGTCACCTAGTGCAG | 5920 fluorescence intensity (a.u.) |
| CTGGTGATTGATAAAACTCCTGAAACTATGAAACAGAACTCGGAGTCACCTAGTGCAG | 42800 fluorescence intensity (a.u.) |
| TTGGGAAGGATTGACCATGCAATCAATGTCTACCACAGTACGGAGTCACCTAGTGCAG | 3570 fluorescence intensity (a.u.) |
| GTTGATTTAATTATGGTTAACCTCTCACAGTAATCCGGGTCGGAGTCACCTAGTGCAG | 64800 fluorescence intensity (a.u.) |
| TAAATAACTGAACGGATTGGAGGCAGGAGACAAATTTGACCGGAGTCACCTAGTGCAG | 6490 fluorescence intensity (a.u.) |
| TAAGATTTGATATGCATTAATTATTGTCCAGTGATAAGCCCGGAGTCACCTAGTGCAG | 35600 fluorescence intensity (a.u.) |
| GTACAGTTACAATGTAATTGTGTCTCAATTATATACTACTCGGAGTCACCTAGTGCAG | 5310 fluorescence intensity (a.u.) |
| ATTGAAGATGGTAATTGATGGCTTTGCTGCATTCTTTCGCCGGAGTCACCTAGTGCAG | 19900 fluorescence intensity (a.u.) |
| TAGTCCTGATTGTTAGAAAGTTGCACCCATCGAGTAATCACGGAGTCACCTAGTGCAG | 15500 fluorescence intensity (a.u.) |
| GTTTGATTACTTAGTCCTTCTCGTTTCCTGGCAACTATGACGGAGTCACCTAGTGCAG | 31700 fluorescence intensity (a.u.) |
| CTCAACCATGATTTGCCGCTTCCTCCCGACCAATTAACACCGGAGTCACCTAGTGCAG | 11600 fluorescence intensity (a.u.) |
| TTGTATTTATAATGGAACGGATGGGGTATTTAGGATGGGCCGGAGTCACCTAGTGCAG | 35800 fluorescence intensity (a.u.) |
| TTCCAGCCAATCATCTCACTCCTGAACTTGTTCAGAGGGACGGAGTCACCTAGTGCAG | 12900 fluorescence intensity (a.u.) |
| TGACAAATTGGACCACACAGACGCGATATCCACATCTGTCCGGAGTCACCTAGTGCAG | 22000 fluorescence intensity (a.u.) |
| TTTAATGCGTGATTATCCATTCTTCCACACATGATTGGCTCGGAGTCACCTAGTGCAG | 42900 fluorescence intensity (a.u.) |
| CCACGTGTCATTGACATATGAGTGGCAAATAGATAAATTGCGGAGTCACCTAGTGCAG | 6200 fluorescence intensity (a.u.) |
| CTCTAATAAAGAAACTAATTACATAATCCGTCAATAAACCCGGAGTCACCTAGTGCAG | 6980 fluorescence intensity (a.u.) |
| AGCAATTTTCGGTGATTAATCGCTAATCGACTAAGGCGATCGGAGTCACCTAGTGCAG | 12800 fluorescence intensity (a.u.) |
| ATAATTTTGAAATTATTAACATGATATAAATGAGATAGAGCGGAGTCACCTAGTGCAG | 16200 fluorescence intensity (a.u.) |
| CATTCAATTAATTGGTATGGCAGGATGAACAGAGTGAGGTCGGAGTCACCTAGTGCAG | 45100 fluorescence intensity (a.u.) |
| ATACGCAATTATTGGTTCAAAGGAAGAAAAGAGAGGATGCCGGAGTCACCTAGTGCAG | 3320 fluorescence intensity (a.u.) |
| TTCTTTTCTGATTGATTGAACGGAACAGAGATGTATACCACGGAGTCACCTAGTGCAG | 50900 fluorescence intensity (a.u.) |
| TAAGGGCAATTAATTAAGTTATTTGGCTACACAGTTACCCCGGAGTCACCTAGTGCAG | 10300 fluorescence intensity (a.u.) |
| ATGACCTTTTAATTAAACATTAATAATGTTATTAGGTCCTCGGAGTCACCTAGTGCAG | 9580 fluorescence intensity (a.u.) |
| TTTTAATTATTATTAAGTGAAAACAGCATGCGGTCAGTGGCGGAGTCACCTAGTGCAG | 27900 fluorescence intensity (a.u.) |
| CTAATTAAACCGTCATTAGCATATGTGGGTTACTGTAGCACGGAGTCACCTAGTGCAG | 19600 fluorescence intensity (a.u.) |
